Laboratory results from the supplement of paper PMC8728848.
The other results are listed elsewhere or left out.

Tests used:
Assay in all cases: glycan array binding signal (z-score within array); higher = stronger binding
Settings in all cases: glycan notation: IUPAC condensed, linker removed
[1] = target: Gal(b1-4)GlcNAc(b1-2)[Gal(b1-4)GlcNAc(b1-4)]Man(a1-3)[Gal(b1-4)GlcNAc(b1-2)[Gal(b1-4)GlcNAc(b1-6)]Man(a1-6)]Man(b1-4)GlcNAc(b1-4)GlcNAc
Summary of the method: (§1)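 Glycan array binding is given as a within-array Z-score, which can be read as non-binding when negative. The arrays, 3228 of them, came from the Consortium for Functional Glycomics database and were retained only where the protein sequence was available. Z-scores were averaged across arrays of the same protein sequence at different concentrations or buffers and across linkers.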

[2] = target: Gal(b1-4)GlcNAc(b1-2)[Gal(b1-4)GlcNAc(b1-4)]Man(a1-3)[GlcNAc(b1-4)][Gal(b1-4)GlcNAc(b1-2)Man(a1-6)]Man(b1-4)GlcNAc(b1-4)GlcNAc
Summary of the method: as §1

[3] = target: Gal(b1-4)GlcNAc(b1-2)[Gal(b1-4)GlcNAc(b1-6)]Man(a1-6)[GlcNAc(b1-4)][Gal(b1-4)GlcNAc(b1-2)Man(a1-3)]Man(b1-4)GlcNAc(b1-4)GlcNAc
Summary of the method: as §1

[4] = target: Gal(b1-4)GlcNAc(b1-3)Gal(b1-3)GlcNAc
Summary of the method: as §1

[5] = target: Gal(b1-4)GlcNAc(b1-3)Gal(b1-4)Glc
Summary of the method: as §1

[6] = target: Gal(b1-4)GlcNAc(b1-3)Gal(b1-4)GlcNAc
Summary of the method: as §1

[7] = target: Gal(b1-4)GlcNAc(b1-3)Gal(b1-4)GlcNAc(b1-3)Gal(b1-4)GlcNAc
Summary of the method: as §1

[8] = target: Gal(b1-4)GlcNAc(b1-3)Gal(b1-4)[Fuc(a1-3)GlcNAc(b1-6)]Gal(b1-4)Glc
Summary of the method: as §1

[9] = target: Gal(b1-4)GlcNAc(b1-3)Gal(b1-4)[Fuc(a1-3)]GlcNAc(b1-3)Gal(b1-4)[Fuc(a1-3)]GlcNAc
Summary of the method: as §1

[10] = target: Gal(b1-4)GlcNAc(b1-3)GalNAc
Summary of the method: as §1

[11] = target: Gal(b1-4)GlcNAc(b1-3)[Gal(b1-4)GlcNAc(b1-6)]Gal(b1-4)GlcNAc
Summary of the method: as §1

[12] = target: Gal(b1-4)GlcNAc(b1-3)[Gal(b1-4)GlcNAc(b1-6)]GalNAc
Summary of the method: as §1

[13] = target: Gal(b1-4)GlcNAc(b1-3)[GlcNAc(b1-6)]Gal(b1-4)GlcNAc
Summary of the method: as §1

[14] = target: Gal(b1-4)GlcNAc(b1-6)Gal(b1-4)GlcNAc
Summary of the method: as §1

[15] = target: Gal(b1-4)GlcNAc(b1-6)GalNAc
Summary of the method: as §1

[16] = target: Gal(b1-4)GlcNAc(b1-6)[Gal(b1-3)]GalNAc
Summary of the method: as §1

Gal(b1-6)Gal = target: Gal(b1-6)Gal
Summary of the method: as §1

Gal3S(b1-3)GalNAc = target: Gal3S(b1-3)GalNAc
Summary of the method: as §1

Gal3S(b1-3)GlcNAc = target: Gal3S(b1-3)GlcNAc
Summary of the method: as §1

[17] = target: Gal3S(b1-3)[Fuc(a1-4)]GlcNAc
Summary of the method: as §1

Gal3S(b1-4)Glc = target: Gal3S(b1-4)Glc
Summary of the method: as §1

Gal3S(b1-4)Glc6S = target: Gal3S(b1-4)Glc6S
Summary of the method: as §1

Gal3S(b1-4)GlcNAc = target: Gal3S(b1-4)GlcNAc
Summary of the method: as §1

Gal3S(b1-4)GlcNAc6S = target: Gal3S(b1-4)GlcNAc6S
Summary of the method: as §1

[18] = target: Gal3S(b1-4)[Fuc(a1-3)]Glc
Summary of the method: as §1

[19] = target: Gal3S(b1-4)[Fuc(a1-3)]Glc6S
Summary of the method: as §1

Gal3S4S(b1-4)GlcNAc = target: Gal3S4S(b1-4)GlcNAc
Summary of the method: as §1

Gal3S6S(b1-4)GlcNAc = target: Gal3S6S(b1-4)GlcNAc
Summary of the method: as §1

Gal3S6S(b1-4)GlcNAc6S = target: Gal3S6S(b1-4)GlcNAc6S
Summary of the method: as §1

Gal4S(b1-4)GlcNAc = target: Gal4S(b1-4)GlcNAc
Summary of the method: as §1

Gal4S6S(b1-4)GlcNAc = target: Gal4S6S(b1-4)GlcNAc
Summary of the method: as §1

Gal6S(b1-3)GlcNAc = target: Gal6S(b1-3)GlcNAc
Summary of the method: as §1

Gal6S(b1-3)GlcNAc6S = target: Gal6S(b1-3)GlcNAc6S
Summary of the method: as §1

Gal6S(b1-4)Glc = target: Gal6S(b1-4)Glc
Summary of the method: as §1

Gal6S(b1-4)Glc6S = target: Gal6S(b1-4)Glc6S
Summary of the method: as §1

Gal6S(b1-4)GlcNAc = target: Gal6S(b1-4)GlcNAc
Summary of the method: as §1

Gal6S(b1-4)GlcNAc6S = target: Gal6S(b1-4)GlcNAc6S
Summary of the method: as §1

GalNAc(a1-3)Gal = target: GalNAc(a1-3)Gal
Summary of the method: as §1

GalNAc(a1-3)GalNAc = target: GalNAc(a1-3)GalNAc
Summary of the method: as §1

[20] = target: GalNAc(a1-3)GalNAc(a1-3)Gal(a1-4)Gal(b1-4)GlcNAc
Summary of the method: as §1

[21] = target: GalNAc(a1-3)GalNAc(b1-3)Gal(a1-4)Gal(b1-4)Glc
Summary of the method: as §1

GalNAc(b1-3)Gal = target: GalNAc(b1-3)Gal
Summary of the method: as §1

[22] = target: GalNAc(b1-3)Gal(a1-4)Gal(b1-4)GlcNAc
Summary of the method: as §1

[23] = target: GalNAc(b1-3)Gal(a1-4)Gal(b1-4)GlcNAc(b1-3)Gal(b1-4)Glc
Summary of the method: as §1

[24] = target: GalNAc(b1-3)Gal(a1-6)Gal(b1-4)Glc
Summary of the method: as §1

B1: Tectonin 2 (Laccaria bicolor) (protein)
chain: MPWKGISGSLSRISAGSVTNVWGVNAANNIYRYTGDDAKPWVQIPGALTDIGAAADGTVWGVNAAGNIYRYVWDSNHWTQIKGALKRISAGSRTNVWGVNAGGAIYRYTGDDANPWVQIPGVLSDIGAGADGTVWGVNAAGEIYRYTGDQGDPNHWVKIPGALSAISAGIKTNVWGVNSANNIYTSTGDDKNPWLGIGGSLVDIGAGTDGVVWGVNAGGGIYRWIRD
[1]
  glycan array binding signal (z-score): -0.038
[2]
  glycan array binding signal (z-score): 0.732
[3]
  glycan array binding signal (z-score): -0.38
[4]
  glycan array binding signal (z-score): -0.021
[5]
  glycan array binding signal (z-score): -0.385
[6]
  glycan array binding signal (z-score): -0.248
[7]
  glycan array binding signal (z-score): -0.352
[8]
  glycan array binding signal (z-score): -0.568
[9]
  glycan array binding signal (z-score): -0.118
[10]
  glycan array binding signal (z-score): -0.335
[11]
  glycan array binding signal (z-score): -0.382
[12]
  glycan array binding signal (z-score): -0.151
[13]
  glycan array binding signal (z-score): -0.462
[14]
  glycan array binding signal (z-score): -0.302
[15]
  glycan array binding signal (z-score): -0.307
[16]
  glycan array binding signal (z-score): -0.206
Gal(b1-6)Gal
  glycan array binding signal (z-score): -0.425
Gal3S(b1-3)GalNAc
  glycan array binding signal (z-score): -0.126
Gal3S(b1-3)GlcNAc
  glycan array binding signal (z-score): -0.076
[17]
  glycan array binding signal (z-score): 0.106
Gal3S(b1-4)Glc
  glycan array binding signal (z-score): 0.03
Gal3S(b1-4)Glc6S
  glycan array binding signal (z-score): 0.155
Gal3S(b1-4)GlcNAc
  glycan array binding signal (z-score): 0.181
Gal3S(b1-4)GlcNAc6S
  glycan array binding signal (z-score): 0.565
[18]
  glycan array binding signal (z-score): -0.079
[19]
  glycan array binding signal (z-score): 1.05
Gal3S4S(b1-4)GlcNAc
  glycan array binding signal (z-score): 0.398
Gal3S6S(b1-4)GlcNAc
  glycan array binding signal (z-score): 0.741
Gal3S6S(b1-4)GlcNAc6S
  glycan array binding signal (z-score): 1.73
Gal4S(b1-4)GlcNAc
  glycan array binding signal (z-score): 0.092
Gal4S6S(b1-4)GlcNAc
  glycan array binding signal (z-score): 1.36
Gal6S(b1-3)GlcNAc
  glycan array binding signal (z-score): 0.325
Gal6S(b1-3)GlcNAc6S
  glycan array binding signal (z-score): 0.188
Gal6S(b1-4)Glc
  glycan array binding signal (z-score): -0.227
Gal6S(b1-4)Glc6S
  glycan array binding signal (z-score): 0.054
Gal6S(b1-4)GlcNAc
  glycan array binding signal (z-score): 0.484
Gal6S(b1-4)GlcNAc6S
  glycan array binding signal (z-score): 2.71
GalNAc(a1-3)Gal
  glycan array binding signal (z-score): -0.17
GalNAc(a1-3)GalNAc
  glycan array binding signal (z-score): -0.155
[20]
  glycan array binding signal (z-score): -0.361
[21]
  glycan array binding signal (z-score): -0.447
GalNAc(b1-3)Gal
  glycan array binding signal (z-score): -0.264
[22]
  glycan array binding signal (z-score): -0.448
[23]
  glycan array binding signal (z-score): -0.218
[24]
  glycan array binding signal (z-score): -0.462
